# The list shows a part of the results.
# Target: T1, OsWOX13 (Oryza sativa, UniProt Q5QMM3 1-267)
# T1 sequence: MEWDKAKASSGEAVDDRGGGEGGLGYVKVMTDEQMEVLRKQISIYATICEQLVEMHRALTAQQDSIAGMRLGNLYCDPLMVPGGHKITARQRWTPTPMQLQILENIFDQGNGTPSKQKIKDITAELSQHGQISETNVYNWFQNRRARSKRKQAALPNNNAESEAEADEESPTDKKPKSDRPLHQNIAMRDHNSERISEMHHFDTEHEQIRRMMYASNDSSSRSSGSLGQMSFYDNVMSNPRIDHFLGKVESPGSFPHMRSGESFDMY
# Assay: protein-binding microarray (RPBM); PBS, 2% BSA, 51.3 ng/ul salmon testes DNA, 50 uM zinc acetate, 200 nM TF, 25 C, 1 h; high values mean tight binding
# Settings: protein: recombinant; tags: N-terminal polyhistidine and DsRed monomer fusion (pET32a); label: CyDye5-dUTP incorporated in the synthesized complementary strand; 3' TTTTT single-stranded linker to array surface; dsDNA, one strand shown
# Method in brief: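 Per-feature fluorescence intensity (arbitrary units), read on an Axon 4000B scanner, is the binding signal. Transcription factors carrying an N-terminal polyhistidine tag and DsRed fusion were expressed in E. coli BL21-CodonPlus and purified on Ni–NTA. A custom Agilent array, made double-stranded by primer extension with Cy5-dUTP and blocked with 2% BSA, was incubated with 200 nM protein in PBS, 2% BSA, salmon testes DNA and 50 µM zinc acetate at 25 °C for 1 h and then washed.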
row,Sequence,binding signal
1,TCCTATTCAATCATAAATAAATATTCTAATGGATGAGGTGCGGAGTCACCTAGTGCAG,25900 fluorescence intensity (a.u.)
2,CTAATTTAAATTTTGTTTAGTCCTAATCGAAGCTGAAGACCGGAGTCACCTAGTGCAG,21200 fluorescence intensity (a.u.)
3,AGCTACTAATCATCTCTGAATTAATCTGCTTACTACTCATCGGAGTCACCTAGTGCAG,8300 fluorescence intensity (a.u.)
4,CAGGTGATTTGGCGCTGACAACGAAAAGTCAATTTTGAAACGGAGTCACCTAGTGCAG,6680 fluorescence intensity (a.u.)
5,GTCAACTAATCTGCCATTGATAATTTAAGATAACATATAACGGAGTCACCTAGTGCAG,4490 fluorescence intensity (a.u.)
6,GAATTAGACAGCCGTTGGAGCCCTTCGACCCCTCCTTGTCCGGAGTCACCTAGTGCAG,3990 fluorescence intensity (a.u.)
7,ATAACGTTGATTTGGGCAACAAATTAAATAGGCACAGTAACGGAGTCACCTAGTGCAG,19500 fluorescence intensity (a.u.)
8,CTGAGATTTGCTTGTTTATTGTTATGTTTCAGGAAATGGGCGGAGTCACCTAGTGCAG,11400 fluorescence intensity (a.u.)
9,TTTTGTAACTGATCGTTATTAGATCGGATTTGTTCATTGTCGGAGTCACCTAGTGCAG,3360 fluorescence intensity (a.u.)
10,TTTTAATTTACTAATACTTTTAAGTCACTAAGAATATATGCGGAGTCACCTAGTGCAG,8540 fluorescence intensity (a.u.)
11,CTGTGATTTATTGGCTTGCAATGAGCGCACAAAAGAGGTTCGGAGTCACCTAGTGCAG,29400 fluorescence intensity (a.u.)
12,TAAATGGAAATTTACAATATGTTTTGTAGTACTTACGTGACGGAGTCACCTAGTGCAG,3580 fluorescence intensity (a.u.)
13,AACTGACTGGCACGTCCGTATCTCACCAACCTTTGGTCCTCGGAGTCACCTAGTGCAG,15000 fluorescence intensity (a.u.)
14,CAAACTGTCCAATTAGGCCCATTTACAAATTCACAAATATCGGAGTCACCTAGTGCAG,5140 fluorescence intensity (a.u.)
15,ACATAATAACAAGTTAATACTAATTAATGTCAACTTGAATCGGAGTCACCTAGTGCAG,11100 fluorescence intensity (a.u.)
16,AGTAGATAATTCATTGGATAATTAATCAAACACAGCATATCGGAGTCACCTAGTGCAG,10700 fluorescence intensity (a.u.)
17,GCTGCTAATTAACCATCATCTACTAGAAATCAAAGAACTACGGAGTCACCTAGTGCAG,8160 fluorescence intensity (a.u.)
18,AATAAATTATAAGTAAATAAATATGGAGTTATTTTACCCCCGGAGTCACCTAGTGCAG,28600 fluorescence intensity (a.u.)
19,ATAAATGGTGAAGGTTGTGATTTGATGAGTAGTGTAGGTACGGAGTCACCTAGTGCAG,5990 fluorescence intensity (a.u.)
20,TTCTTGCAATAATCAATCAACCTCAGTTGAAGACATGTTGCGGAGTCACCTAGTGCAG,19900 fluorescence intensity (a.u.)
21,CCCTTCTCATCAGTTGTCAGTCACGCATCGGCGCCGCCCTCGGAGTCACCTAGTGCAG,3300 fluorescence intensity (a.u.)

row,Sequence,binding signal
1,TCGTGATGACAGTTTACTCTTTAAATGAGAGTAATTAACTCGGAGTCACCTAGTGCAG,17400 fluorescence intensity (a.u.)
2,TATATGATTTATAAGCCGGTGGATTTACTGTCCTAAGTTTCGGAGTCACCTAGTGCAG,23400 fluorescence intensity (a.u.)
3,AGACGGAATTGGAATGGTAATTTAAGATGTTGCTTTTGTACGGAGTCACCTAGTGCAG,9460 fluorescence intensity (a.u.)
4,ATAGTGTACTAATCAATTGGGTCATGGGTTTCACTTAACCCGGAGTCACCTAGTGCAG,3680 fluorescence intensity (a.u.)
5,ACATGATACGGCCCAAATGATTAAAGTTCTCCGAAACGAGCGGAGTCACCTAGTGCAG,3350 fluorescence intensity (a.u.)
6,CCAACTGACATTGATATCCATTTCGAGAAACTGTGGAAAGCGGAGTCACCTAGTGCAG,3950 fluorescence intensity (a.u.)
7,ACAACACCTTAATTACCATTCCAACACTTTAATGATGCTACGGAGTCACCTAGTGCAG,10400 fluorescence intensity (a.u.)
8,GGATCTGATTAAATTATTGTCTTTACATCCATTTAATTTTCGGAGTCACCTAGTGCAG,19300 fluorescence intensity (a.u.)
9,CGTAGATTTGACCGAACAAATTGTACAGTAATGTACTAGGCGGAGTCACCTAGTGCAG,20100 fluorescence intensity (a.u.)
10,GTACCGACAAATTTGATTTCTGCAACTTCCGCATCTTTTCCGGAGTCACCTAGTGCAG,6410 fluorescence intensity (a.u.)
11,AATTTAATTAATGACAAATATAATTAGCTCTCTATCCAGGCGGAGTCACCTAGTGCAG,55500 fluorescence intensity (a.u.)
12,CTAGAACAAATTGCAAATTCCACCTGTAAACTGCGAGACGCGGAGTCACCTAGTGCAG,13700 fluorescence intensity (a.u.)
13,ATGCCTGATTGGAAATCTACTATTACTATTCATGATACCGCGGAGTCACCTAGTGCAG,58500 fluorescence intensity (a.u.)
14,ATTCAAATAATTTATATATAGAATATTTCTATACATAAAGCGGAGTCACCTAGTGCAG,3250 fluorescence intensity (a.u.)
15,ATATTTAATGCTAGATTGAATGAAAATTTTATTGTTTTCACGGAGTCACCTAGTGCAG,3980 fluorescence intensity (a.u.)
16,AAAATAATTAATACTTAATTAATCATGTGTTATTGGCTTACGGAGTCACCTAGTGCAG,40800 fluorescence intensity (a.u.)
17,GCCTAATGATTCCATCCGATCTGAGTGTGTTGCCTGTAGACGGAGTCACCTAGTGCAG,5050 fluorescence intensity (a.u.)
18,CTGATAATTGGGCCGGGGCCGGTGATCGGTTTTGCAGACACGGAGTCACCTAGTGCAG,18400 fluorescence intensity (a.u.)
19,TCTTAAATTATGATTTATATTTGAGTGGTTCTAGAAAGTCCGGAGTCACCTAGTGCAG,40100 fluorescence intensity (a.u.)
20,AAGGGAAATGATTTACCATCCCTCTTTAAATCTTAACCATCGGAGTCACCTAGTGCAG,3860 fluorescence intensity (a.u.)
21,TAAACCAATTACAATGATTATTTTCAACCGACCACCGATTCGGAGTCACCTAGTGCAG,23300 fluorescence intensity (a.u.)

row,Sequence,binding signal
1,AGAGATATGATTTAGTTAAGATGAAATTCATGAGCTGCAGCGGAGTCACCTAGTGCAG,3370 fluorescence intensity (a.u.)
2,TTATAGAACAAGATTGGAATCTAAACAGAACCTTTGTTTACGGAGTCACCTAGTGCAG,3500 fluorescence intensity (a.u.)
3,ATGTAATTATAATTTATTTTGTTATAAGTTGTTTTATCACCGGAGTCACCTAGTGCAG,39900 fluorescence intensity (a.u.)
4,TGACTTAAATTACATAGCATGATATATATTTATAGAGGATCGGAGTCACCTAGTGCAG,8420 fluorescence intensity (a.u.)
5,TCTAATTTATCTATAGCCAATCTAATAGCTCATTCATACACGGAGTCACCTAGTGCAG,15500 fluorescence intensity (a.u.)
6,AAGAAATTTGGTTATTGGGCTGTCAAAATTATGATAAGGTCGGAGTCACCTAGTGCAG,4990 fluorescence intensity (a.u.)
7,CTTTGTAGTGATTGGGCATTTGGGCACCAGCGTTCCTTGCCGGAGTCACCTAGTGCAG,28200 fluorescence intensity (a.u.)
8,GCTTGACGACACCATTCGGATTGTTCCATCACTTCCATACCGGAGTCACCTAGTGCAG,3540 fluorescence intensity (a.u.)
9,TCTAGTCTCCGTCAATCTAATAGCGGAAGCTCGATCAGGTCGGAGTCACCTAGTGCAG,4120 fluorescence intensity (a.u.)
10,CCACCAAATTAAAGCTGTCACAATTTACATAAATTCTTATCGGAGTCACCTAGTGCAG,5970 fluorescence intensity (a.u.)
11,CTAATTAACACACGCACCAACTAAGATATTTCTAACTCTACGGAGTCACCTAGTGCAG,6260 fluorescence intensity (a.u.)
12,CCTACATCAACTAATTTGATTCCTTGAGTTTACGTTTAGTCGGAGTCACCTAGTGCAG,4890 fluorescence intensity (a.u.)
13,ATTCTAACCAATTAGTACATTTACTGTTTCCAACACTGTTCGGAGTCACCTAGTGCAG,11600 fluorescence intensity (a.u.)
14,CGTCGGCGTCAATCAAGTAGCCAAGGACGGGGCACCCGAGCGGAGTCACCTAGTGCAG,16800 fluorescence intensity (a.u.)
15,CACAATTGATCACTAGTGCCATCTATGCTCTTTTAACCCTCGGAGTCACCTAGTGCAG,16000 fluorescence intensity (a.u.)
16,GCATCGTGGGGTGTGGGTGGCGGTTTTGGAGGGGAGAGGTCGGAGTCACCTAGTGCAG,5840 fluorescence intensity (a.u.)
17,TTAACTTGATTAATATTGTAGGCTTATGGAGTTTGATCTCCGGAGTCACCTAGTGCAG,19400 fluorescence intensity (a.u.)
18,GGTGAATTCCAATTTACAAAATGATCTTGCAACAGTACAACGGAGTCACCTAGTGCAG,4600 fluorescence intensity (a.u.)
19,TCCTTTCTGAATGACAATCAGTTGGAGTTGGAGTTGGAGTCGGAGTCACCTAGTGCAG,9500 fluorescence intensity (a.u.)
20,TTTGGTAAATTAAATCTCGCTGACAAAACCGATGACCTCTCGGAGTCACCTAGTGCAG,12300 fluorescence intensity (a.u.)
21,ATGCCAATCACTCATTTGCGTTGAAATGATATTTCCATGCCGGAGTCACCTAGTGCAG,22400 fluorescence intensity (a.u.)

row,Sequence,binding signal
1,TAGGGATTAATAAATCAAATCAAATCAAATCAAAGCTGTGCGGAGTCACCTAGTGCAG,13500 fluorescence intensity (a.u.)
2,CGATCTCAATCACGTTGCGCCGCGTGCTCCGTTTCTGCCTCGGAGTCACCTAGTGCAG,20100 fluorescence intensity (a.u.)
3,TAGATTGGATCAAATGTCTCGAACCAACCAGTCCTCTCTCCGGAGTCACCTAGTGCAG,16000 fluorescence intensity (a.u.)
4,CCATTTTGCAATTAACAATCCAGGGTACATAATTACAGCCCGGAGTCACCTAGTGCAG,3750 fluorescence intensity (a.u.)
5,TACACTCATTATCCGACAATCAGTTCTGACATGGTTGAACCGGAGTCACCTAGTGCAG,3360 fluorescence intensity (a.u.)
6,TATAAATTTATAAAATATACATCATGGTTAAAATATTTTGCGGAGTCACCTAGTGCAG,15700 fluorescence intensity (a.u.)
7,AATTGCCAATTAATTGTTACCTGACTTGTTTGTTTAAGCACGGAGTCACCTAGTGCAG,44000 fluorescence intensity (a.u.)
8,CGTGCAAATTGGACATCCTTGTGGATGTACATAGTTTATGCGGAGTCACCTAGTGCAG,9070 fluorescence intensity (a.u.)
9,GCTCAATTTTAAATGGTTAAAATTATTTCTAGAGCTCTGACGGAGTCACCTAGTGCAG,6420 fluorescence intensity (a.u.)
10,CATGTAATTTGAAGGGACAACACTAGTTTGTGAATCTGTTCGGAGTCACCTAGTGCAG,8240 fluorescence intensity (a.u.)
11,GCCAATCAACAACGTGATGGCTGGCGTATCAGTAGCCATGCGGAGTCACCTAGTGCAG,12400 fluorescence intensity (a.u.)
12,CTAAACTGGGCCTTAGAGGGAAATCATTCTTTAGGACCCCCGGAGTCACCTAGTGCAG,7490 fluorescence intensity (a.u.)
13,CTAGCAATCAACGTGCAATTTTGTACAAATACTCTCCTCCCGGAGTCACCTAGTGCAG,17800 fluorescence intensity (a.u.)
14,GACCTGTATCAGATTGAAGCTTTGATCAACTGTTATATTGCGGAGTCACCTAGTGCAG,5570 fluorescence intensity (a.u.)
15,CATCAACTTCTTCCCAATCAGCCGCTTCTACTACTACTAACGGAGTCACCTAGTGCAG,3700 fluorescence intensity (a.u.)
16,GCTAGATTGATATGTTAAATCTACCCTTTATGCTAAGATCCGGAGTCACCTAGTGCAG,45600 fluorescence intensity (a.u.)
17,TTTATTGATGCCAAAATGTTGTCAATTTCACAATTTCATGCGGAGTCACCTAGTGCAG,3520 fluorescence intensity (a.u.)
18,AAGGCACATAAATAGATTGACACTATAGATAGTGGAATAGCGGAGTCACCTAGTGCAG,30100 fluorescence intensity (a.u.)
19,TAGCCACGTAATTTTGACAGGCTGCTCTTGCAGTTAGTGGCGGAGTCACCTAGTGCAG,11200 fluorescence intensity (a.u.)
20,ATAATAATTAGTCATAAAGACAAGTGCTTATGCCCACTTACGGAGTCACCTAGTGCAG,16700 fluorescence intensity (a.u.)
21,TTAATTACCGTATTCTCTCCGATTCGTATTAGATTCGTGTCGGAGTCACCTAGTGCAG,4490 fluorescence intensity (a.u.)
